For 67 sequences, switch fluorescence ratio results are on record in the supplement of paper PMC10126150.

Sequences with one replicate were seen in a single cluster, so their values are uncertain.

This series concerns ATP. Briefly: switch fluorescence ratio, 500 uM ATP over buffer (Cy3 cluster intensity, sum of 5 cycles each) (fold (ratio)); higher = stronger signal-on switching upon ATP binding; sequences stand for … in TCGTCGGCAGCGTCAGATGTGTATAAGAGACAGTTTTTTTTTTTTTTTTTTTTTTTTT…TC. Conditions: aptamer strand: ATP DNA aptamer (quencher-CACCTGGGGGAGTATTGCGGAGGAAGG + anchor), 100 nM annealed; ATP concentration: 500 uM; one replicate. The essentials:
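Clusters carrying Cy3-labelled switching strands on a modified Illumina MiSeq flow-cell were annealed to 100 nM quencher-labelled ATP aptamer and imaged in selection buffer. They were imaged again after 15 min with 500 uM ATP at 22 °C, over five buffer/ATP cycles with NaOH stripping and re-annealing in between. For each cluster, the fluorescence ratio is the summed Cy3 intensity of the target cycles divided by that of the buffer cycles, averaged per switch-domain sequence. Clusters outside 100-1000 RFU were left out.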
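Also: ATP exposure 15 min at 22 °C before imaging.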

Consider AGTCGTGGAA, for which the switch fluorescence ratio was 0.998.
Consider AGGTAAGCTT, for which the switch fluorescence ratio worked out at 0.993.
On to TCTTATTTGC, for which the switch fluorescence ratio amounted to 0.99.
Turning to GCGTCGGTGG, the switch fluorescence ratio worked out at 1.06.
As for TCTGGCCTGT, the switch fluorescence ratio is 1.01.
In the case of CTGCCCCTTG, the switch fluorescence ratio was 1.06.
CATGTTACCG: the switch fluorescence ratio was 1.03.
As to GGGGGCGCCC, the switch fluorescence ratio came to 0.945.
Then CATGTGTGGC, with 1.02; and AGACGTTGAG, with 1.02.
Then AGAAGATTCC, with 1.15.
For CAGTCACCGT, the switch fluorescence ratio came out at 0.999.
On to TGCAAGACGG, for which the switch fluorescence ratio is 1.44.
Then CCACTCCCGC, with 1.42; and TATCAATGGA, with 1.02; and AAAGATGTTC, with 1.06.
On to GGCATAAACT, for which the switch fluorescence ratio is 1.02.
With TTACCGAACA the figure was 1.07; with CGCCCTTCTG, 0.981; with ATCGAAAATG, 0.988.
Regarding AGTCAGCGC, the switch fluorescence ratio came out at 1.02.
Then CAGTCATACT, with 1.1.
For the sequence GACATCTTGT, the switch fluorescence ratio came out at 1.02.
Turning to GTATAACTAG, the switch fluorescence ratio came to 1.03.
Consider TACAGCTCAA, for which the switch fluorescence ratio stood at 0.99.
For the sequence AACGCTTTTT, the switch fluorescence ratio was 0.984.
As for AATCGCTGAC, the switch fluorescence ratio came out at 1.87.
For the sequence ACAGCTAGCC, the switch fluorescence ratio is 1.03.
With GGTTGCCTTG the figure was 0.979; with CGGAGTGTTC, 1.17.
Consider GTCTAATATA, for which the switch fluorescence ratio is 1.03.
Then CTGGACTGAT, with 1.06; and GTTAGTTAAT, with 1.01; and GTGGTATCA, with 1.01.
For the sequence ACAGTACTCC, the switch fluorescence ratio stood at 1.63.
Then GTTTAATGTA, with 1.03.
For the sequence TGATAAAGGG, the switch fluorescence ratio was 1.
In the case of ACCTGGCGAG, the switch fluorescence ratio is 1.03.
For ACAAGTCAA, the switch fluorescence ratio turned out to be 1.01.
As for TATGCGCCAA, the switch fluorescence ratio turned out to be 1.07.
Consider ATGTTGCAGT, for which the switch fluorescence ratio came to 1.03.
For TCTCTACAGC, the switch fluorescence ratio was 1.02.
On to GGACTCGACC, for which the switch fluorescence ratio is 1.04.
As for GCAATTCGGT, the switch fluorescence ratio was 1.23.
Consider CCCCCGAATA, for which the switch fluorescence ratio is 3.91.
Then TATATCTACC, with 1.09; and GTTAGGATG, with 0.965; and TTTCCTTATT, with 1.09.
Then TCGGCCAGAT, with 1.04; and CTAACGATGG, with 0.999; and TATCTTCTTT, with 1.02.
On to ACCGTCATTA, for which the switch fluorescence ratio was determined as 1.1.
Turning to CAAAAAAAAT, the switch fluorescence ratio is 1.04.
With AGTAGATGA the figure was 1.
Consider CAAGTTAACA, for which the switch fluorescence ratio turned out to be 1.
With AAGCAAGTAG the figure was 1.18.
Take CACGAGGATG: the switch fluorescence ratio amounted to 1.03.
On to GGCTTGCTGT, for which the switch fluorescence ratio was 0.982.
Take AGGGTCTGCT: the switch fluorescence ratio amounted to 0.995.
As for ATGGTCCTGC, the switch fluorescence ratio is 0.96.
For GGATGGTGGC, the switch fluorescence ratio came to 1.04.
Consider TGGAGAGCTG, for which the switch fluorescence ratio worked out at 1.03.
For TTCTCGAACA, the switch fluorescence ratio amounted to 1.05.
Turning to GCGAGTTACG, the switch fluorescence ratio is 0.993.
With TTAATGTTGC the figure was 1.08; with TAAACACACT, 1.2.
As for TTTCATCCA, the switch fluorescence ratio is 1.06.
